{"source": "the supplement of paper PMC8728848", "assay_in_all_cases": "glycan array binding signal (z-score within array); higher = stronger binding", "conditions_in_all_cases": "glycan notation: IUPAC condensed, linker removed", "key": {"[1]": {"molecular_target": "Fuc(a1-2)Gal(b1-4)GlcNAc(b1-3)Gal(b1-4)GlcNAc(b1-2)Man(a1-3)[Fuc(a1-2)Gal(b1-4)GlcNAc(b1-3)Gal(b1-4)GlcNAc(b1-2)Man(a1-6)]Man(b1-4)GlcNAc(b1-4)GlcNAc", "method_in_brief": "(§1)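 Negative Z-scores can be read as non-binding. The Z-score is calculated within each array and then averaged across arrays of one protein sequence at different concentrations or buffers and across linkers. Arrays, 3228 in all, were curated from the Consortium for Functional Glycomics database and kept only where the protein sequence was available.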"}, "[2]": {"molecular_target": "Fuc(a1-2)Gal(b1-4)GlcNAc(b1-3)Gal(b1-4)GlcNAc(b1-3)Gal(b1-4)GlcNAc", "method_in_brief": "as §1"}, "[3]": {"molecular_target": "Fuc(a1-2)Gal(b1-4)GlcNAc(b1-3)GalNAc", "method_in_brief": "as §1"}, "[4]": {"molecular_target": "Fuc(a1-2)Gal(b1-4)GlcNAc(b1-3)[Fuc(a1-2)Gal(b1-4)GlcNAc(b1-6)]GalNAc", "method_in_brief": "as §1"}, "[5]": {"molecular_target": "Fuc(a1-2)Gal(b1-4)GlcNAc(b1-3)[Fuc(a1-3)[Gal(b1-4)]GlcNAc(b1-6)]Gal(b1-4)Glc", "method_in_brief": "as §1"}, "[6]": {"molecular_target": "Fuc(a1-2)Gal(b1-4)GlcNAc(b1-6)GalNAc", "method_in_brief": "as §1"}, "[7]": {"molecular_target": "Fuc(a1-2)Gal(b1-4)GlcNAc6S", "method_in_brief": "as §1"}, "[8]": {"molecular_target": "Fuc(a1-2)Gal(b1-4)[Fuc(a1-3)]GlcNAc", "method_in_brief": "as §1"}, "[9]": {"molecular_target": "Fuc(a1-2)Gal(b1-4)[Fuc(a1-3)]GlcNAc(b1-2)Man(a1-3)[Fuc(a1-2)Gal(b1-4)[Fuc(a1-3)]GlcNAc(b1-2)Man(a1-6)]Man(b1-4)GlcNAc(b1-4)[Fuc(a1-6)]GlcNAc", "method_in_brief": "as §1"}, "[10]": {"molecular_target": "Fuc(a1-2)Gal(b1-4)[Fuc(a1-3)]GlcNAc(b1-2)[Fuc(a1-2)Gal(b1-4)[Fuc(a1-3)]GlcNAc(b1-4)]Man(a1-3)[Fuc(a1-2)Gal(b1-4)[Fuc(a1-3)]GlcNAc(b1-2)Man(a1-6)]Man(b1-4)GlcNAc(b1-4)GlcNAc", "method_in_brief": "as §1"}, "[11]": {"molecular_target": "Fuc(a1-2)Gal(b1-4)[Fuc(a1-3)]GlcNAc(b1-3)Gal(b1-4)[Fuc(a1-3)]GlcNAc", "method_in_brief": "as §1"}, "[12]": {"molecular_target": "Fuc(a1-2)Gal(b1-4)[Fuc(a1-3)]GlcNAc(b1-3)Gal(b1-4)[Fuc(a1-3)]GlcNAc(b1-3)Gal(b1-4)[Fuc(a1-3)]GlcNAc", "method_in_brief": "as §1"}, "[13]": {"molecular_target": "Fuc(a1-2)Gal(b1-4)[Fuc(a1-3)]GlcNAc(b1-3)GalNAc", "method_in_brief": "as §1"}, "[14]": {"molecular_target": "Fuc(a1-2)Gal(b1-4)[Fuc(a1-3)]GlcNAc(b1-3)[Neu5Ac(a2-6)Gal(b1-4)GlcNAc(b1-6)]Gal(b1-4)Glc", "method_in_brief": "as §1"}, "[15]": {"molecular_target": "Fuc(a1-2)Gal3S(b1-4)GlcNAc", "method_in_brief": "as §1"}, "[16]": {"molecular_target": "Fuc(a1-2)Gal6S(b1-3)GlcNAc", "method_in_brief": "as §1"}, "[17]": {"molecular_target": "Fuc(a1-2)Gal6S(b1-3)GlcNAc6S", "method_in_brief": "as §1"}, "[18]": {"molecular_target": "Fuc(a1-2)Gal6S(b1-4)Glc", "method_in_brief": "as §1"}, "[19]": {"molecular_target": "Fuc(a1-2)Gal6S(b1-4)Glc6S", "method_in_brief": "as §1"}, "[20]": {"molecular_target": "Fuc(a1-2)[Gal(a1-3)]Gal", "method_in_brief": "as §1"}, "[21]": {"molecular_target": "Fuc(a1-2)[Gal(a1-3)]Gal(b1-3)GalNAc", "method_in_brief": "as §1"}, "[22]": {"molecular_target": "Fuc(a1-2)[Gal(a1-3)]Gal(b1-3)GalNAc(b1-3)Gal(a1-4)Gal(b1-4)Glc", "method_in_brief": "as §1"}, "[23]": {"molecular_target": "Fuc(a1-2)[Gal(a1-3)]Gal(b1-3)GlcNAc", "method_in_brief": "as §1"}, "[24]": {"molecular_target": "Fuc(a1-2)[Gal(a1-3)]Gal(b1-3)GlcNAc(b1-2)Man(a1-3)[Fuc(a1-2)[Gal(a1-3)]Gal(b1-3)GlcNAc(b1-2)Man(a1-6)]Man(b1-4)GlcNAc(b1-4)GlcNAc", "method_in_brief": "as §1"}, "[25]": {"molecular_target": "Fuc(a1-2)[Gal(a1-3)]Gal(b1-3)GlcNAc(b1-2)Man(a1-3)[Fuc(a1-2)[Gal(a1-3)]Gal(b1-3)GlcNAc(b1-2)Man(a1-6)]Man(b1-4)GlcNAc(b1-4)[Fuc(a1-6)]GlcNAc", "method_in_brief": "as §1"}, "[26]": {"molecular_target": "Fuc(a1-2)[Gal(a1-3)]Gal(b1-3)GlcNAc(b1-3)GalNAc", "method_in_brief": "as §1"}, "[27]": {"molecular_target": "Fuc(a1-2)[Gal(a1-3)]Gal(b1-3)GlcNAc(b1-6)GalNAc", "method_in_brief": "as §1"}, "[28]": {"molecular_target": "Fuc(a1-2)[Gal(a1-3)]Gal(b1-4)Glc", "method_in_brief": "as §1"}, "[29]": {"molecular_target": "Fuc(a1-2)[Gal(a1-3)]Gal(b1-4)GlcNAc", "method_in_brief": "as §1"}, "[30]": {"molecular_target": "Fuc(a1-2)[Gal(a1-3)]Gal(b1-4)GlcNAc(b1-2)Man", "method_in_brief": "as §1"}}, "note": "This is one part of the list.", "data": [{"binder": "AT1G73650(15) (Arabidopsis thaliana), F4HRY1 (protein) MGTVLDSHFLALTAIVTVIYQFIFFVITALFKFDQVTDFAGSTNFVILAVLTLVLKASWHFRQIVLTLLVVVWGLRLGIFLLMETRILQWGEDRRFDEQRGNIVRLIIFWTLQAVWVWTVSLPLTLVNASDGGGSLKPADVIGWTMETWVFGFLIEAAADQQKLSFKNSPENRGKWCDVGVWKYSRHPNYFGEMETLLWWGIFVAASPVLEGAEYLVIFGPLFLTLLLLFVSGIPLLEASADKKHGNSGAYRSYKKTTSPLILFPRGVYGNLPGWFKTVFLFEFPFYSRNLPQEGRLQNSKEKEVKDD", "values": [{"measurement": "glycan array binding signal (z-score)", "setting": "[1]", "result": -0.657}, {"measurement": "glycan array binding signal (z-score)", "setting": "[2]", "result": -0.547}, {"measurement": "glycan array binding signal (z-score)", "setting": "[3]", "result": 1.03}, {"measurement": "glycan array binding signal (z-score)", "setting": "[4]", "result": 2.33}, {"measurement": "glycan array binding signal (z-score)", "setting": "[5]", "result": 1.18}, {"measurement": "glycan array binding signal (z-score)", "setting": "[6]", "result": -0.607}, {"measurement": "glycan array binding signal (z-score)", "setting": "[7]", "result": -0.344}, {"measurement": "glycan array binding signal (z-score)", "setting": "[8]", "result": 0.014}, {"measurement": "glycan array binding signal (z-score)", "setting": "[9]", "result": -0.453}, {"measurement": "glycan array binding signal (z-score)", "setting": "[10]", "result": -0.475}, {"measurement": "glycan array binding signal (z-score)", "setting": "[11]", "result": -0.182}, {"measurement": "glycan array binding signal (z-score)", "setting": "[12]", "result": -0.048}, {"measurement": "glycan array binding signal (z-score)", "setting": "[13]", "result": 1.71}, {"measurement": "glycan array binding signal (z-score)", "setting": "[14]", "result": -0.273}, {"measurement": "glycan array binding signal (z-score)", "setting": "[15]", "result": -0.151}, {"measurement": "glycan array binding signal (z-score)", "setting": "[16]", "result": -0.429}, {"measurement": "glycan array binding signal (z-score)", "setting": "[17]", "result": -0.149}, {"measurement": "glycan array binding signal (z-score)", "setting": "[18]", "result": -0.553}, {"measurement": "glycan array binding signal (z-score)", "setting": "[19]", "result": -0.674}, {"measurement": "glycan array binding signal (z-score)", "setting": "[20]", "result": 0.489}, {"measurement": "glycan array binding signal (z-score)", "setting": "[21]", "result": -0.092}, {"measurement": "glycan array binding signal (z-score)", "setting": "[22]", "result": -0.635}, {"measurement": "glycan array binding signal (z-score)", "setting": "[23]", "result": -0.411}, {"measurement": "glycan array binding signal (z-score)", "setting": "[24]", "result": -0.546}, {"measurement": "glycan array binding signal (z-score)", "setting": "[25]", "result": 0.255}, {"measurement": "glycan array binding signal (z-score)", "setting": "[26]", "result": -0.453}, {"measurement": "glycan array binding signal (z-score)", "setting": "[27]", "result": -0.472}, {"measurement": "glycan array binding signal (z-score)", "setting": "[28]", "result": -0.4}, {"measurement": "glycan array binding signal (z-score)", "setting": "[29]", "result": -0.073}, {"measurement": "glycan array binding signal (z-score)", "setting": "[30]", "result": -0.406}]}]}
